The source of these data is PubChem BioAssay AID1346428 (National Center for Advancing Translational Sciences (NCATS), 2018).

SMILES strings stand for the structures. Values joined by “and” are separate entries in the source; they are usually repeats but may differ in a detail not shown here. Identical values can stand only once. The whole screen tested about 48,000 compounds, of which about 1,200 (2.5%) were called active. Another 2% or so got no clear call; they are omitted.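 The calls were made as follows: active = activation of at least 60% and not above a set upper limit (about 1 call in 100 departs from these limits); inconclusive = activation of 40% to 60%, or above that upper limit; inactive = activation under 40%.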 Some of the results follow.

Sequence of UniProt O75388 (O75388 whole entry, looked up): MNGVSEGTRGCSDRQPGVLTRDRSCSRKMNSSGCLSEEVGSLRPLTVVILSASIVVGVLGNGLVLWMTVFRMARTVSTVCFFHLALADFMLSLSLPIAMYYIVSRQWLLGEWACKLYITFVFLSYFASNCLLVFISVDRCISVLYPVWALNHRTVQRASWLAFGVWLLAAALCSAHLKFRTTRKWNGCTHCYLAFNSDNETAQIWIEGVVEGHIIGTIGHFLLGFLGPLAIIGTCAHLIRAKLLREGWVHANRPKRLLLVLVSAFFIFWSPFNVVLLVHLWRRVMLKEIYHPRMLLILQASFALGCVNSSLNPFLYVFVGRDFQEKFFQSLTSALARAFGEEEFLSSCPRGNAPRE

In the assay the target is Probable G-protein coupled receptor 32 (Homo sapiens) (UniProt O75388). Briefly: qHTS for Agonists of Human Resolvin D1 Receptor DRV1. Also: 0% is about no effect. The settings on record: CHO-K1 GPR32 beta-arrestin PathHunter luminescence, 90 min; at 76.9 µM; stronger effect = higher value; zero percent set by DMSO-only wells. A digest of the protocol:
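Step 1: seed CHO-K1 GPR32 beta-arrestin cells, 2,500/well, overnight at 37 °C. Step 2: add compounds, 90 min at 37 °C. Step 3: detection reagent, 1 h ambient, then luminescence.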
Consider `Cc1cc(C)c(S(=O)(=O)Nc2cc(Cl)c3oc4c(c3c2)C(=O)CCC4)cc1C`, for which the activation was inactive: -11.1%. On to `Cn1c(=O)n(C)c2cc(CNCc3ccccc3)ccc21`, for which the activation is inactive: 1.51%. In the case of `Cc1ccc(CNS(=O)(=O)c2cc(Br)cc3c2N(C(=O)C2CC2)CC3)cc1`, the activation is inactive: 2.67%. As to `Cc1ccc(Cn2c(=O)n(Cc3ccccc3)c(=O)c3c(C)c(C)sc32)cc1`, the activation is inactive: -7.92%. In the case of `Cc1ccc(CNC(=O)C(=O)NCC(c2ccco2)S(=O)(=O)c2ccc(C)cc2)cc1` (stereo not drawn) it was inactive: -15%; in that of `Cc1cccc2c(=O)cc(CSCC(=O)Nc3ccc(Cl)cc3)[nH]c12`, inactive: -11.3%. Regarding `CCOc1ccc(C(=O)Nc2ccc(-c3nnc4n3CCCCC4)cc2)cc1OCC`, the activation is inactive: -9.16%. Regarding `CS(=O)(=O)Nc1ccc([N+](=O)[O-])cc1Oc1ccccc1`, the activation is inactive: -54.3% and inactive: -33.3%. In the case of `COc1cc(C)nc(-n2nc(C)cc2OC)n1` it was inactive: -31.4%; in that of `Cc1ccc(-n2c(=O)c3c4c(sc3n(CC(=O)Nc3cccc(Cl)c3)c2=O)CCCCC4)cc1C`, inactive: -1.85%.

For `Fc1ccc(C(NCCc2ccccc2)c2nnc(-c3ccccc3Cl)o2)cc1` (stereo not drawn), the activation was inactive: -25.2%. Regarding `Cc1ccc(C)c(CN2CCCN(CC(=O)Nc3ccc(C)c(C)c3)S2(=O)=O)c1`, the activation is inactive: -2.25%.

Take `Cc1cccc(C)c1OCC(=O)NC(Cc1c[nH]c2ccccc12)C(=O)O` (stereo not drawn): the activation is inactive: 6.57%. Under `Cc1ccc(S(=O)(=O)NCc2nc3nc(C)cc(C)n3n2)cc1` stands inactive: 5.62%.

As to `Cn1cc(C(=O)NCc2ccccc2Cl)c(=O)c2cc(S(=O)(=O)N3CCCCCC3)ccc21`, the activation is inactive: -6.61%.

Regarding `CCOC(=O)c1c(S(=O)(=O)N2CCC(C(=O)N3CCN(c4ccccc4F)CC3)CC2)c(C)n(C)c1C`, the activation was inactive: -0.626%.

As for `CCn1cc(C(=O)O)c(=O)c2cc(F)c(N3CCNC(C)C3)c(F)c21` (stereo not drawn), the activation is inactive: -27.7% and inactive: 3.87%. Under `COc1cc(Cl)c(C)cc1NC(=O)CCc1nc2cccnc2n1Cc1cccs1` stands inactive: -16.4%; under `CCN(CC)CCCNC(=O)c1ccc(Cn2c(=O)[nH]c3cc(OC)c(OC)cc3c2=O)cc1`, inactive: -12.8%; under `CCOC(=O)c1ccc(NC(=O)CCCn2c(=O)c3cccn3c3cccnc32)cc1`, inactive: -7.26%.

On to `COc1ccc(CCNC(=O)c2cn(C)c3ccc(S(=O)(=O)N4CCOCC4)cc3c2=O)cc1OC`, for which the activation is inactive: 23.8%.

Consider `CC(C)N(Cc1ccccc1)C(=O)Cn1ncc2c3ccccc3n(Cc3ccccc3)c2c1=O`, for which the activation is inactive: -12.3%. Turning to `Cc1nn(-c2ccc(Cl)cc2)c2nc(-c3cccnc3)cc(C(F)(F)F)c12`, the activation is inactive: -15%. Under `COc1ccc(NC(=O)C2CCN(S(=O)(=O)c3c(C)noc3/C=C/c3cccs3)CC2)cc1` stands inactive: -14.9%; under `Cc1cccc(Cn2c(SCc3ccc(C(=O)NC4CCCC4)cc3)nc3cccnc32)c1`, inactive: -9.63%. With `COc1cccc(-c2noc(CCCC(=O)NCc3ccco3)n2)c1`, the activation was inactive: -5.98%. In the case of `O=C(CSc1ccccc1)NCc1ccc2c(c1)CCN2C(=O)c1ccccc1` it was inactive: -11.6%; in that of `COc1ccc(OC)c(CNC(=O)c2ccc(NC(=O)c3nsc4ccccc34)cc2)c1`, inactive: -17.1%; in that of `Cc1ccccc1OCCCCn1c(CCNC(=O)C(C)(C)C)nc2ccccc21`, inactive: -0.665%. Under `COc1ccc(OC)c(S(=O)(=O)NCC(c2ccco2)S(=O)(=O)c2ccccc2)c1` (stereo not drawn) stands inactive: -20.4%; under `COC(=O)c1ccccc1NC(=O)c1ccc(-c2nc(CSc3ccc(C)cc3)c(C)o2)cc1`, inactive: 0.344%. Consider `CCn1cc(S(=O)(=O)c2cccc(Cl)c2)c(=O)c2cc(F)c(N3CCN(C)CC3)cc21`, for which the activation is inactive: 5.06%. In the case of `CN(Cc1ccccc1)C(=O)CCS(=O)(=O)c1ccc2c(c1)oc(=O)n2C` it was inactive: -16.5%; in that of `CNC(=O)c1c(NC(=O)c2nc(SCc3ccc(C)cc3)ncc2Cl)sc2c1CCCC2`, inactive: 16.8%; in that of `CCOC(=O)c1cc(S(=O)(=O)N2CCN(c3cccc(C)c3C)CC2)[nH]n1`, inactive: -44.9%.

With `COc1cccc(CNC(=O)C2CCN(C(=O)c3cnn(-c4ccccc4)c3-n3cccc3)CC2)c1`, the activation was inactive: -26.2%. Under `COc1ccc(-c2cc(C(C)=O)c(C)n2CCC(=O)NCc2ccc(C)cc2)cc1` stands inactive: -23.8%.

On to `Cc1ccc(NC(=O)Nc2cn(CC(C)C)c(=O)c3ccccc23)cc1N(C)C`, for which the activation is inactive: -0.0809%.

For `Cc1ccc(-n2ncc(C(=O)NC3CCCCC3)c2C2CCN(C(=O)OC(C)(C)C)CC2)cc1`, the activation is inactive: -12.7%. In the case of `COc1ccccc1OCC(=O)N1CCC(c2nc3ccccc3o2)CC1` it was inactive: 2.79%; in that of `CCN(c1ccccc1C)S(=O)(=O)c1nnc(NC(=O)c2ccco2)s1`, inactive: 17.7%. Regarding `COc1ccc(Nc2nnc(-c3ccc(C)c(S(=O)(=O)NCCO)c3)c3ccccc23)cc1C(N)=O`, the activation was inactive: -31.4%. Turning to `CCCS(=O)(=O)c1ncc(Cl)c(C(=O)Nc2c(C(=O)Nc3ccccc3)oc3ccccc23)n1`, the activation was inactive: 41.3%. In the case of `Cc1ccc(NC(=O)c2c(C)oc3c2C2=NCCN2C=N3)cc1F` it was inactive: 28.7%.

With `O=c1ccc2c(OCCCCc3ccccc3)c3ccoc3cc2o1`, the activation was inactive: -37.9%. Under `COc1ccc(N(C)C(=O)c2cc3c(s2)-c2c(C)cccc2OC3)c(OC)c1` stands inactive: -29.3%; under `COc1ccc(-c2c(C)nn3c(C(F)(F)F)cc(-c4ccccc4)nc23)cc1OC`, inactive: -13.6%. For `COc1ccc(CNc2nc3c(-c4cccc(F)c4)nnn3c3ccccc23)cc1`, the activation was inactive: 11.5%.

Turning to `CN(CC(=O)NCc1ccc(F)cc1)S(=O)(=O)c1ccc2[nH]c3c(c2c1)CCCC3`, the activation is inactive: 42%. In the case of `COC(=O)c1cc2sccc2n1CC(=O)Nc1ccc(OC)c(OC)c1` it was inactive: -4.93%; in that of `Cc1cccn2c(=O)cc(CSc3nnc(NC(=O)COc4ccccc4)s3)nc12`, inactive: 1.13%; in that of `NCC(O)c1ccc(O)c(O)c1` (stereo not drawn), inactive: 0.45%.

For `O=C(c1ccc2c(c1)N(Cc1cccc(F)c1)C(=O)c1ccccc1S2)N1CCC2(CC1)OCCO2`, the activation is inactive: -30.6%.
